Source: EPA's CvTdb concentration-time database
Further values from the same series stand in other lists. Values belong to the compound of their own block, whether it stands above or below them.

Experiments:
Rat [1] = test: concentration in brain after dosing; details: 5 min; dosed: 2-Methyltetrahydrofuran; 10 mg/kg; iv; Male; F344
Rat [2] = test: concentration in brain after dosing; details: 2 h; dosed: 2-Methyltetrahydrofuran; 10 mg/kg; iv; Male; F344
Rat [3] = test: concentration in brain after dosing; details: 0.75 h; dosed: 2-Methyltetrahydrofuran; 10 mg/kg; oral; Female; F344
Rat [4] = test: concentration in brain after dosing; details: 2 h; dosed: 2-Methyltetrahydrofuran; 30 mg/kg; oral; Female; F344
Rat [5] = test: concentration in brain after dosing; details: 0.25 h; dosed: 2-Methyltetrahydrofuran; 30 mg/kg; oral; Female; F344
Rat [6] = test: concentration in brain after dosing; details: 8 h; dosed: 2-Methyltetrahydrofuran; 100 mg/kg; oral; Female; Harlan Sprague Dawley
Rat [7] = test: concentration in brain after dosing; details: 1.5 h; dosed: 2-Methyltetrahydrofuran; 10 mg/kg; oral; Female; F344
Rat [8] = test: concentration in brain after dosing; details: 5 min; dosed: 2-Methyltetrahydrofuran; 100 mg/kg; oral; Female; Harlan Sprague Dawley
Rat [9] = test: concentration in brain after dosing; details: 1 h; dosed: 2-Methyltetrahydrofuran; 30 mg/kg; oral; Female; F344
Rat [10] = test: concentration in brain after dosing; details: 0.25 h; dosed: 2-Methyltetrahydrofuran; 10 mg/kg; iv; Male; F344
Rat [11] = test: concentration in brain after dosing; details: 20 min; dosed: 2-Methyltetrahydrofuran; 100 mg/kg; oral; Female; Harlan Sprague Dawley
Rat [12] = test: concentration in brain after dosing; details: 3 h; dosed: 2-Methyltetrahydrofuran; 30 mg/kg; oral; Female; F344
Rat [13] = test: concentration in plasma after dosing; details: 8 h; dosed: 2-Methyltetrahydrofuran; 400 mg/kg; oral; Male; F344
Rat [14] = test: concentration in plasma after dosing; details: 1 h; dosed: 2-Methyltetrahydrofuran; 10 mg/kg; iv; Female; F344
Rat [15] = test: concentration in plasma after dosing; details: dosed: Bromochloroacetic acid, 100 mg/kg, oral, Male, F344
Rat [16] = test: concentration in plasma after dosing; details: 6 h; dosed: Fluorotelomer alcohol 8+2; 80 mg/kg; oral; Female; Harlan Sprague Dawley
Rat [17] = test: concentration in plasma after dosing; details: dosed: Fluorotelomer alcohol 8+2, 40 mg/kg, oral, Female, Harlan Sprague Dawley
Rat [18] = test: concentration in plasma after dosing; details: dosed: Fluorotelomer alcohol 8+2, 40 mg/kg, oral, Female, Harlan Sprague Dawley; remark: listed apart in the source
Rat [19] = test: concentration in plasma after dosing; details: 0.75 h; dosed: Fluorotelomer alcohol 8+2; 24 mg/kg; oral; Male; Harlan Sprague Dawley
Rat [20] = test: concentration in plasma after dosing; details: dosed: Fluorotelomer alcohol 8+2, 80 mg/kg, oral, Female, Harlan Sprague Dawley
Rat [21] = test: concentration in plasma after dosing; details: dosed: Formamide, 36 mg/kg, oral, Female, Harlan Sprague Dawley
Rat [22] = test: concentration in plasma after dosing; details: dosed: Formamide, 36 mg/kg, oral, Male, Harlan Sprague Dawley
Rat [23] = test: concentration in plasma after dosing; details: dosed: Formamide, 90 mg/kg, iv, Male, Harlan Sprague Dawley
Rat [24] = test: concentration in plasma after dosing; details: dosed: Formamide, 300 mg/kg, oral, Female, F344
Rat [25] = test: concentration in plasma after dosing; details: dosed: Formamide, 600 mg/kg, oral, Female, Harlan Sprague Dawley
Rat [26] = test: concentration in plasma after dosing; details: dosed: Formamide, 30 mg/kg, iv, Female, F344
Rat [27] = test: concentration in plasma after dosing; details: dosed: Formamide, 300 mg/kg, oral, Female, Harlan Sprague Dawley
Rat [28] = test: concentration in plasma after dosing; details: 2 h; dosed: Formamide; 90 mg/kg; iv; Male; Harlan Sprague Dawley
Rat [29] = test: concentration in plasma after dosing; details: dosed: Formamide, 300 mg/kg, oral, Female, Harlan Sprague Dawley; remark: listed apart in the source
Rat [30] = test: concentration in plasma after dosing; details: 2 h; dosed: Formamide; 36 mg/kg; oral; Female; Harlan Sprague Dawley
Rat [31] = test: concentration in plasma after dosing; details: dosed: Formamide, 90 mg/kg, iv, Male, Harlan Sprague Dawley; remark: listed apart in the source
Rat [32] = test: concentration in plasma after dosing; details: dosed: Formamide, 600 mg/kg, oral, Male, Harlan Sprague Dawley
Rat [33] = test: concentration in plasma after dosing; details: 5 h; dosed: Formamide; 30 mg/kg; iv; Female; F344
Rat [34] = test: concentration in plasma after dosing; details: 2 h; dosed: Pyridine; 50 mg/kg; oral; Female; F344
Rat [35] = test: concentration in plasma after dosing; details: dosed: Pyridine, 100 mg/kg, oral, Male, F344
Rat [36] = test: concentration in plasma after dosing; details: dosed: Pyridine, 25 mg/kg, oral, Female, F344
Rat [37] = test: concentration in plasma after dosing; details: 20 min; dosed: Pyridine; 50 mg/kg; oral; Female; F344

concentration in brain (Rat [1]): 5.21 µg/g
concentration in brain (Rat [2]): 0.241 µg/g
concentration in brain (Rat [3]): 1.04 µg/g
concentration in brain (Rat [4]): 1.89 µg/g
concentration in brain (Rat [5]): 10.4 µg/g
concentration in brain (Rat [6]): 0.0586 µg/g
concentration in brain (Rat [7]): 0.156 µg/g
concentration in brain (Rat [8]): 60.1 µg/g
concentration in brain (Rat [9]): 8.08 µg/g
concentration in brain (Rat [10]): 5.71 µg/g
concentration in brain (Rat [11]): 50.5 µg/g
concentration in brain (Rat [12]): 0.356 µg/g
concentration in plasma (Rat [13]): 70500 ng/mL
concentration in plasma (Rat [14]): 1990 ng/mL
Structure (SMILES): CC1CCCO1 (stereo not drawn) [2-Methyltetrahydrofuran]

concentration in plasma (Rat [16]): 125 ng/mL
concentration in plasma (Rat [17]; 0.5 h): 7.32 ng/mL
concentration in plasma (Rat [17]; 9 h): 49.7 ng/mL
concentration in plasma (Rat [18]; 0.25 h): 158 ng/mL
concentration in plasma (Rat [18]; 6 h): 112 ng/mL
concentration in plasma (Rat [19]): 924 ng/mL
concentration in plasma (Rat [20]; 5 min): 14.8 ng/mL
concentration in plasma (Rat [20]; 9 h): 244 ng/mL
Structure (SMILES): OCCC(F)(F)C(F)(F)C(F)(F)C(F)(F)C(F)(F)C(F)(F)C(F)(F)C(F)(F)F [Fluorotelomer alcohol 8+2]

concentration in plasma (Rat [21]; 1 h): 50300 ng/mL
concentration in plasma (Rat [21]; 72 h): 2500 ng/mL
concentration in plasma (Rat [22]; 0.25 h): 20600 ng/mL
concentration in plasma (Rat [22]; 5 h): 50700 ng/mL
concentration in plasma (Rat [23]; 5 h): 98900 ng/mL
concentration in plasma (Rat [23]; 72 h): 2600 ng/mL
concentration in plasma (Rat [24]; 5 min): 97400 ng/mL
concentration in plasma (Rat [24]; 2 h): 230000 ng/mL
concentration in plasma (Rat [25]; 5 min): 138000 ng/mL
concentration in plasma (Rat [25]; 2 h): 692000 ng/mL
concentration in plasma (Rat [26]; 10 min): 26900 ng/mL
concentration in plasma (Rat [26]; 18 h): 8300 ng/mL
concentration in plasma (Rat [27]; 1.5 h): 270000 ng/mL
concentration in plasma (Rat [27]; 30 h): 106000 ng/mL
concentration in plasma (Rat [28]): 155000 ng/mL
concentration in plasma (Rat [29]; 1.5 h): 228000 ng/mL
concentration in plasma (Rat [29]; 30 h): 166000 ng/mL
concentration in plasma (Rat [30]): 52800 ng/mL
concentration in plasma (Rat [31]; 2 h): 155000 ng/mL
concentration in plasma (Rat [31]; 96 h): 2800 ng/mL
concentration in plasma (Rat [32]; 0.25 h): 362000 ng/mL
concentration in plasma (Rat [32]; 5 h): 737000 ng/mL
concentration in plasma (Rat [33]): 31100 ng/mL
Structure (SMILES): NC=O [Formamide]

Further lines, the compound ahead of its results:

Structure (SMILES): O=C(O)C(Cl)Br (stereo not drawn) [Bromochloroacetic acid]
concentration in plasma (Rat [15]; 2 min): 2140 ng/mL
concentration in plasma (Rat [15]; 1.5 h): 22600 ng/mL

Structure (SMILES): c1ccncc1 [Pyridine]
concentration in plasma (Rat [34]): 21400 ng/mL
concentration in plasma (Rat [35]; 0.5 h): 53100 ng/mL
concentration in plasma (Rat [35]; 6 h): 59200 ng/mL
concentration in plasma (Rat [36]; 5 min): 7470 ng/mL
concentration in plasma (Rat [36]; 4 h): 20800 ng/mL
concentration in plasma (Rat [37]): 28800 ng/mL
